Scores with a large standard error are left out. The source holds two more conditions with little spread; they are left out. Names with del lack the residues named; names with ins carry added residues between the positions named. For part of these data: The concentration of ogerin is not given here.
B1: GPR68, Q15743 (parent)
chain: MGNITADNSSMSCTIDHTIHQTLAPVVYVTVLVVGFPANCLSLYFGYLQIKARNELGVYLCNLTVADLFYICSLPFWLQYVLQHDNWSHGDLSCQVCGILLYENIYISVGFLCCISVDRYLAVAHPFRFHQFRTLKAAVGVSVVIWAKELLTSIYFLMHEEVIEDENQHRVCFEHYPIQAWQRAINYYRFLVGFLFPICLLLASYQGILRAVRRSHGTQKSRKDQIQRLVLSTVVIFLACFLPYHVLLLVRSVWEASCDFAKGVFNAYHFSLLLTSFNCVADPVLYCFVSETTHRDLARLRGACLAFLTCSRTGRAREAYPLGAPEASGKSGAQGEEPELLTKLHPAFQTPNSPGSGGFPTGRLA

Key:
[1] = variants of: B1; assay: cAMP reporter score (Enrich2 score, wild type = 0); higher = more signal; HEK293T, FACS bins
[2] = variants of: B1; assay: surface expression score (Enrich2 score, wild type = 0); higher = more signal; HEK293T, FACS bins

Row | Variant | cAMP reporter score ([1]; pH 6.5, modulator: ogerin) | surface expression score [2] | cAMP reporter score ([1]; pH 6, modulator: ogerin) | cAMP reporter score ([1]; pH 6)
1 | R213_S215del | -1.46 | -0.433 |  | 
2 | A327N | 1.73 | 2.1 | 0.724 | 
3 | Q95_V96insG | -1.19 | 0.59 |  | 
4 | V234L | 0.351 | 0.779 | -0.259 | -0.286
5 | R128_F129insG | -0.331 |  |  | 
6 | S331V |  | 2.03 | 0.809 | -0.447
7 | D118_R119insGS |  | -1.33 | -0.746 | 
8 | R213_R214insG |  |  |  | -0.668
9 | V117del | -1.54 |  |  | -0.753
10 | F288P | 0.01 | -2.83 |  | -1.73
11 | G98C | -0.432 |  | -0.686 | 
12 | G98Q | -0.784 |  | -0.684 | 
13 | G98M | -0.421 |  | -0.642 | 
14 | C72_S73del | -0.425 | -3.21 |  | 
15 | H159P | -1.37 | -0.377 | -1.61 | -1.04
16 | H159I | -1.52 | -0.897 |  | -1.48
17 | H159C |  |  | -2.83 | 
18 | S311W |  | 1.35 | -0.629 | 
19 | S311A | 0.448 |  | -0.678 | -0.591
20 | F260A | 0.086 | -0.238 | 0.648 | 0.435
21 | F260C | -1.52 | 0.506 | -2.66 | 
22 | F260D | 0.31 | -0.412 | 0.697 | 
23 | K330R |  | -0.329 | -0.609 | 
24 | K330W |  | -0.318 |  | 
25 | K330H |  | -0.012 | 2.63 | 

Row | Variant | cAMP reporter score ([1]; pH 6.5, modulator: ogerin) | surface expression score [2] | cAMP reporter score ([1]; pH 6, modulator: ogerin) | cAMP reporter score ([1]; pH 6)
26 | L100V |  | -0.273 | -1.09 | 0.057
27 | P351W | 0.547 | 0.577 | 1.35 | 
28 | T134del | -1.4 | -3.54 | -0.754 | 
29 | Y176D | -0.434 | -1.32 | -0.248 | -0.943
30 | Y176V | -2.63 | 0.171 | -1.58 | 
31 | Y176K | -2.12 | -0.808 |  | -1.05
32 | F194_F196del | -0.798 | -2.98 |  | 0.444
33 | L231M |  |  |  | -0.042
34 | L231N |  |  | 0.036 | 
35 | A147W | -0.431 | -0.415 |  | -0.377
36 | A147R | 0.468 | -1.11 | -1.85 | -2.07
37 | D296L | -0.432 | -0.425 | 0 | -0.489
38 | R183Y | -2.67 |  | -0.72 | 
39 | R183H | -0.214 | -0.138 | -0.681 | -1.08
40 | H130_Q131insGSG |  | -2.96 | -1.46 | -0.248
41 | V27T | -0.252 |  |  | 
42 | R170T |  | 4.57 | -0.644 | 
43 | P177I |  | -0.397 | -0.696 | -0.582
44 | L238_A239insG | -0.439 |  |  | 
45 | L121_V123del | -0.438 | -0.672 | -0.668 | 
46 | S116K |  | -0.393 | -0.679 | -1.45
47 | C287L | -1.07 | 0.539 |  | -0.995
48 | H294V | 0.002 | 0.212 |  | 
49 | R315E |  | 2.12 | -0.161 | 1.12
50 | P346T | -0.426 |  |  | -0.38

— the GPR68 mutational scans of Howard et al. (2025)
